According to paper PMC4673198:
Results are given in words; binding and its absence hold for the method and conditions named. Binding seen in cells or lysates may run through a third protein. Some results given as binding are weak or reduced against the parent protein; the word gives no strength. For some assays here: Tags and fused reporters may be left off the sequences shown.

Chains of the proteins cited; added tags and fusions are not shown.
UniProt Q9UKT5: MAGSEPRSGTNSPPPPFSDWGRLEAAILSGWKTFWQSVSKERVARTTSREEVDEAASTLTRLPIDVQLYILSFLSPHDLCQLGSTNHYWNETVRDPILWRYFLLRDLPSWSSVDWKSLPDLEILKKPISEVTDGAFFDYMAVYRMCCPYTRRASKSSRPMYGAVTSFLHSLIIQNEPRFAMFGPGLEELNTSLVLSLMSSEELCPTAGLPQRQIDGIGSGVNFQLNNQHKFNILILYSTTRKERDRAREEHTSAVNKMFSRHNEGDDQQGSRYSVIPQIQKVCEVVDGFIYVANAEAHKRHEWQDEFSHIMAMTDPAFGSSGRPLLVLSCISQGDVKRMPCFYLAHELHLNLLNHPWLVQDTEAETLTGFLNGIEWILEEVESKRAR
UniProt Q8NEZ5: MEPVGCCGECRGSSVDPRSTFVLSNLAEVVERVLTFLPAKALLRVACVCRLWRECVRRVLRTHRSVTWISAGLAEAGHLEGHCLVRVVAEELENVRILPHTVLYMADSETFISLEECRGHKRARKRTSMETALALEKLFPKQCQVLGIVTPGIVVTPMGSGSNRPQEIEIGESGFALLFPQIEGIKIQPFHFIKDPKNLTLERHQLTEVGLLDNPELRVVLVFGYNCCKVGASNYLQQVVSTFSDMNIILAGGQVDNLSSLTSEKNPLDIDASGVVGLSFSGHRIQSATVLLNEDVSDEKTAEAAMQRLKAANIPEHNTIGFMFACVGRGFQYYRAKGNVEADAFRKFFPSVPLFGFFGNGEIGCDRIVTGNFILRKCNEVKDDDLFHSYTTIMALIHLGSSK
UniProt O43474: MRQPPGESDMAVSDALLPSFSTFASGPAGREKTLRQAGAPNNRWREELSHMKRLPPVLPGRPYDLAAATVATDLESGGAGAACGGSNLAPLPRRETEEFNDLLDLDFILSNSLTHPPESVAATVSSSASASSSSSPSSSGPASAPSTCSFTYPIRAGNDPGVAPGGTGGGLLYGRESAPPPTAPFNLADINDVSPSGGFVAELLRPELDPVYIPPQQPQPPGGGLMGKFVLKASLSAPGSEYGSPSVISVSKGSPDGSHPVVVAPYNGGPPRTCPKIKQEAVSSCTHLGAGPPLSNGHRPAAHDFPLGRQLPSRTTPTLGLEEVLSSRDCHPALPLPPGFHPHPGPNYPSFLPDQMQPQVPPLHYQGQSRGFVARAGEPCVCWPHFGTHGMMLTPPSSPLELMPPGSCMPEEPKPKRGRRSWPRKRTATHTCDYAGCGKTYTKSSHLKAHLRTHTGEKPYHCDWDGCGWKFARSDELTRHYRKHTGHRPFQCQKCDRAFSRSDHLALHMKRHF

What was measured:
Experiment in all cases: co-IP; FLAG tagged human F-box proteins transfected into 293T cells and immunoprecipitated; endogenous KLF4 and SKP1 looked for
[1] = biological target: T1, FLAG tagged FBXO36 (human) (UniProt Q8NEA4)
T1 sequence: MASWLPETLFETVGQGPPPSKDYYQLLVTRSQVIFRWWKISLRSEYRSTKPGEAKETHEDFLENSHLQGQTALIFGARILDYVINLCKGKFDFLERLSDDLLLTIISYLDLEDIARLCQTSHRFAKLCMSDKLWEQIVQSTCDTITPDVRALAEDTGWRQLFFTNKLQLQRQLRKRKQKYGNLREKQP

[2] = biological target: FLAG tagged FBXO4 (human) (UniProt Q9UKT5)
[3] = biological target: T2, FLAG tagged FBXO30 (human) (UniProt Q8TB52)
T2 sequence: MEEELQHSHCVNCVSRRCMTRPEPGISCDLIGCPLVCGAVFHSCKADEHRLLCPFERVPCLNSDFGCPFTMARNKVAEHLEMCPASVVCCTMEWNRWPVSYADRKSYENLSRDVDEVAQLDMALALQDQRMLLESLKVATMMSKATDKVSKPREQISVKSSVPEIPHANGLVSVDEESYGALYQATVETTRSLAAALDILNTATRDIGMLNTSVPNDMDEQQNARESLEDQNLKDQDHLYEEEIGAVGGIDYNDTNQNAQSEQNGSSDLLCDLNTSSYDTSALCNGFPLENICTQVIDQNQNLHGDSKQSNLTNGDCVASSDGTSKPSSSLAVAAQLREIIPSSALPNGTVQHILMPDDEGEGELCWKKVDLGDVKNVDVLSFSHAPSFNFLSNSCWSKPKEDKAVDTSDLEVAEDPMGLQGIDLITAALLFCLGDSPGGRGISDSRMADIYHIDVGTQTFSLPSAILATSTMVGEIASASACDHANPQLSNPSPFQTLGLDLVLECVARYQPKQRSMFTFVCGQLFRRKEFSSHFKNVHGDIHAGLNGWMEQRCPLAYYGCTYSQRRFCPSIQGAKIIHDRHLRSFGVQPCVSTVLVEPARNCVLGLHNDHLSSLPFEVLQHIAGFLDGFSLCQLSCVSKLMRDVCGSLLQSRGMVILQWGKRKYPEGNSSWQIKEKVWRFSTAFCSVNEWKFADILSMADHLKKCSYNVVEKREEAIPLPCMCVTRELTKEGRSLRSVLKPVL

[4] = biological target: T3, FLAG tagged FBXO34 (human) (UniProt Q9NWN3)
T3 sequence: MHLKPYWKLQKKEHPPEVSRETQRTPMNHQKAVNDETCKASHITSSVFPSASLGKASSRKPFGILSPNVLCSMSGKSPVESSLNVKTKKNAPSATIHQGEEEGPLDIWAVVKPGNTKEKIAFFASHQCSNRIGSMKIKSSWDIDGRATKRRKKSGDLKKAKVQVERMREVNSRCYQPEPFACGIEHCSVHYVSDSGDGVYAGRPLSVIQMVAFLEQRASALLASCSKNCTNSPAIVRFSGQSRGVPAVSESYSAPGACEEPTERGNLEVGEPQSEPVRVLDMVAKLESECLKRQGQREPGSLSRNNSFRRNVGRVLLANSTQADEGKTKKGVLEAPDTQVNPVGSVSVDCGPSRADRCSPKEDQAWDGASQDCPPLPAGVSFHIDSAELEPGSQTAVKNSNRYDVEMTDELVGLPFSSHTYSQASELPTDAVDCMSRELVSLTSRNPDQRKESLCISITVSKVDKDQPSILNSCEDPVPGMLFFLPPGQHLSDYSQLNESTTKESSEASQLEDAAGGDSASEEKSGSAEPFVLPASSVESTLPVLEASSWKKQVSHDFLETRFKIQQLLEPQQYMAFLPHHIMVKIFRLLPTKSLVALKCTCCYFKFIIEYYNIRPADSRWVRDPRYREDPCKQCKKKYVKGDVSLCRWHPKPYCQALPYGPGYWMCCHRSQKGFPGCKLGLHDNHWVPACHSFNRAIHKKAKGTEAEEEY

[5] = biological target: T4, FLAG tagged FBXO6 (human) (UniProt Q9NRD1)
T4 sequence: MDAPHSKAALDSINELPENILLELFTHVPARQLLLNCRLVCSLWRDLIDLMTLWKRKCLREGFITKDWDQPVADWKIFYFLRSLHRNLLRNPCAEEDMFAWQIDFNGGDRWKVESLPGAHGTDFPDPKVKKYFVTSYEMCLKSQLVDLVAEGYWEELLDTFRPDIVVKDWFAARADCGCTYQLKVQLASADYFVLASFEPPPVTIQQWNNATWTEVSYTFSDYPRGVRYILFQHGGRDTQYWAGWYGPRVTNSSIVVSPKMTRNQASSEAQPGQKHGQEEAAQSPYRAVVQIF

[6] = biological target: FLAG tagged FBXO22 (human) (UniProt Q8NEZ5)

KLF4, endogenous in 293T (from UniProt O43474 1-513)
binding [1]: no binding
binding [2]: no binding
binding [3]: no binding
binding [4]: no binding
binding [5]: no binding
binding [6]: binds

SKP1 in 293T cells (from UniProt P63208 1-163)
binding [1]: binds
binding [2]: binds
binding [3]: binds
binding [4]: binds
binding [5]: binds
